# Reference: the supplement of paper PMC8728848
# The other results are listed elsewhere or left out.
# B1: SP16665A-bot-344-23-344 (Bacteroides ovatus) (protein)
# chain: SDNEFPDFDYQTVYFANQYGLRTIELGESEFVDNTLDNQHKMVIKAAWGGGYTNRNNVVINFKVDESLCDNLYFKDTDQPLVPMPASYYTLASDRIAIPKGQIMAGVEVQLTDDFFADEKSISENYVIPLLMTNVQGADSILQGKPVVENPVLTNAGDWSILPQNFVLYAVKYVNPWHGEYLRRGIDHATVAGTSKDIIRHEQFVENDEVVNISTKSMKDNLLTLKTKDESGKDISYTVRLSFAEDGSCTVHSGSQNVVVSGSGKFVSKGEKNSLGGKDRNAIYLDYTVNLTDNNIQLATKDTLVLRTRNVYGGKSLEVVRK
# How the values were obtained:
# Assay in all cases: glycan array binding signal (z-score within array); higher = stronger binding
# Conditions in all cases: glycan notation: IUPAC condensed, linker removed
# Kdn(a2-3)Gal(b1-4)Glc = target: Kdn(a2-3)Gal(b1-4)Glc
# Procedure, shortened: (§1)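 From the Consortium for Functional Glycomics database, 3228 arrays were curated, keeping only those whose protein sequence was available. Binding is given as a within-array Z-score averaged across arrays sharing a protein sequence and across linkers. Negative Z-scores can be read as non-binding.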
# Kdn(a2-3)Gal(b1-4)GlcNAc = target: Kdn(a2-3)Gal(b1-4)GlcNAc
# Procedure, shortened: as §1
# [1] = target: Kdn(a2-3)Gal(b1-4)[Fuc(a1-3)]GlcNAc
# Procedure, shortened: as §1
# Kdn(a2-6)Gal(b1-4)GlcNAc = target: Kdn(a2-6)Gal(b1-4)GlcNAc
# Procedure, shortened: as §1
# [2] = target: Man(a1-2)Man(a1-2)Man(a1-3)Man
# Procedure, shortened: as §1
# [3] = target: Man(a1-2)Man(a1-2)Man(a1-6)[Man(a1-3)]Man
# Procedure, shortened: as §1
# Man(a1-2)Man(a1-3)Man = target: Man(a1-2)Man(a1-3)Man
# Procedure, shortened: as §1
# [4] = target: Man(a1-2)Man(a1-3)[Man(a1-2)Man(a1-6)]Man
# Procedure, shortened: as §1
# [5] = target: Man(a1-2)Man(a1-3)[Man(a1-2)Man(a1-6)]Man(a1-6)[Man(a1-2)Man(a1-2)Man(a1-3)]Man
# Procedure, shortened: as §1
# [6] = target: Man(a1-2)Man(a1-3)[Man(a1-2)Man(a1-6)]Man(a1-6)[Man(a1-2)Man(a1-2)Man(a1-3)]Man(b1-4)GlcNAc(b1-4)GlcNAc
# Procedure, shortened: as §1
# [7] = target: Man(a1-2)Man(a1-3)[Man(a1-6)]Man(a1-6)[Man(a1-2)Man(a1-3)]Man(b1-4)GlcNAc(b1-4)GlcNAc
# Procedure, shortened: as §1
# [8] = target: Man(a1-2)Man(a1-6)[Man(a1-3)]Man(a1-6)[Man(a1-2)Man(a1-2)Man(a1-3)]Man
# Procedure, shortened: as §1
# [9] = target: Man(a1-2)Man(a1-6)[Man(a1-3)]Man(a1-6)[Man(a1-2)Man(a1-2)Man(a1-3)]Man(b1-4)GlcNAc(b1-4)GlcNAc
# Procedure, shortened: as §1
# Man(a1-3)[Man(a1-6)]Man = target: Man(a1-3)[Man(a1-6)]Man
# Procedure, shortened: as §1
# [10] = target: Man(a1-3)[Man(a1-6)]Man(a1-6)[Man(a1-2)Man(a1-3)]Man(b1-4)GlcNAc(b1-4)GlcNAc
# Procedure, shortened: as §1
# [11] = target: Man(a1-3)[Man(a1-6)]Man(a1-6)[Man(a1-3)]Man
# Procedure, shortened: as §1
# [12] = target: Man(a1-3)[Man(a1-6)]Man(a1-6)[Man(a1-3)]Man(b1-4)GlcNAc(b1-4)GlcNAc
# Procedure, shortened: as §1
# [13] = target: Man(a1-3)[Man(a1-6)]Man(b1-4)GlcNAc(b1-4)GlcNAc
# Procedure, shortened: as §1
# [14] = target: Man(a1-3)[Man(a1-6)]Man(b1-4)GlcNAc(b1-4)[Fuc(a1-6)]GlcNAc
# Procedure, shortened: as §1
# Man(a1-6)Man = target: Man(a1-6)Man
# Procedure, shortened: as §1
# Man(b1-4)GlcNAc = target: Man(b1-4)GlcNAc
# Procedure, shortened: as §1
# MurNAc(b1-4)GlcNAc = target: MurNAc(b1-4)GlcNAc
# Procedure, shortened: as §1
# Neu5Ac(a2-3)Gal = target: Neu5Ac(a2-3)Gal
# Procedure, shortened: as §1
# [15] = target: Neu5Ac(a2-3)Gal(b1-3)GalNAc
# Procedure, shortened: as §1
# [16] = target: Neu5Ac(a2-3)Gal(b1-3)GalNAc(b1-3)Gal(a1-4)Gal(b1-4)Glc
# Procedure, shortened: as §1
# [17] = target: Neu5Ac(a2-3)Gal(b1-3)GalNAc(b1-4)[Neu5Ac(a2-3)]Gal(b1-4)Glc
# Procedure, shortened: as §1
# [18] = target: Neu5Ac(a2-3)Gal(b1-3)GalNAc(b1-4)[Neu5Ac(a2-8)Neu5Ac(a2-3)]Gal(b1-4)Glc
# Procedure, shortened: as §1
# [19] = target: Neu5Ac(a2-3)Gal(b1-3)GalNAc6S
# Procedure, shortened: as §1
# [20] = target: Neu5Ac(a2-3)Gal(b1-3)GlcNAc
# Procedure, shortened: as §1
# [21] = target: Neu5Ac(a2-3)Gal(b1-3)GlcNAc(b1-2)Man
# Procedure, shortened: as §1
# [22] = target: Neu5Ac(a2-3)Gal(b1-3)GlcNAc(b1-2)Man(a1-3)[GlcNAc(b1-4)][Neu5Ac(a2-3)Gal(b1-3)GlcNAc(b1-2)Man(a1-6)]Man(b1-4)GlcNAc(b1-4)GlcNAc
# Procedure, shortened: as §1
# [23] = target: Neu5Ac(a2-3)Gal(b1-3)GlcNAc(b1-2)Man(a1-3)[Neu5Ac(a2-3)Gal(b1-3)GlcNAc(b1-2)Man(a1-6)]Man(b1-4)GlcNAc(b1-4)GlcNAc
# Procedure, shortened: as §1
# [24] = target: Neu5Ac(a2-3)Gal(b1-3)GlcNAc(b1-3)Gal(b1-3)GlcNAc
# Procedure, shortened: as §1
# [25] = target: Neu5Ac(a2-3)Gal(b1-3)GlcNAc(b1-3)Gal(b1-4)GlcNAc
# Procedure, shortened: as §1
# [26] = target: Neu5Ac(a2-3)Gal(b1-3)GlcNAc(b1-3)GalNAc
# Procedure, shortened: as §1
# [27] = target: Neu5Ac(a2-3)Gal(b1-3)GlcNAc(b1-4)Gal(b1-4)Glc
# Procedure, shortened: as §1
# [28] = target: Neu5Ac(a2-3)Gal(b1-3)GlcNAc(b1-6)GalNAc
# Procedure, shortened: as §1
# [29] = target: Neu5Ac(a2-3)Gal(b1-3)GlcNAc6S
# Procedure, shortened: as §1
binder,measurement,setting,value
B1,glycan array binding signal (z-score),Kdn(a2-3)Gal(b1-4)Glc,-0.005
same,glycan array binding signal (z-score),Kdn(a2-3)Gal(b1-4)GlcNAc,-0.185
same,glycan array binding signal (z-score),[1],-0.264
same,glycan array binding signal (z-score),Kdn(a2-6)Gal(b1-4)GlcNAc,-0.417
same,glycan array binding signal (z-score),[2],-0.468
same,glycan array binding signal (z-score),[3],-0.281
same,glycan array binding signal (z-score),Man(a1-2)Man(a1-3)Man,0.048
same,glycan array binding signal (z-score),[4],0.074
same,glycan array binding signal (z-score),[5],0.464
same,glycan array binding signal (z-score),[6],-0.19
same,glycan array binding signal (z-score),[7],-0.204
same,glycan array binding signal (z-score),[8],-0.563
same,glycan array binding signal (z-score),[9],-0.087
same,glycan array binding signal (z-score),Man(a1-3)[Man(a1-6)]Man,-0.441
same,glycan array binding signal (z-score),[10],0.003
same,glycan array binding signal (z-score),[11],0.018
same,glycan array binding signal (z-score),[12],-0.618
same,glycan array binding signal (z-score),[13],-0.053
same,glycan array binding signal (z-score),[14],-0.355
same,glycan array binding signal (z-score),Man(a1-6)Man,0.306
same,glycan array binding signal (z-score),Man(b1-4)GlcNAc,0.383
same,glycan array binding signal (z-score),MurNAc(b1-4)GlcNAc,-0.317
same,glycan array binding signal (z-score),Neu5Ac(a2-3)Gal,-0.314
same,glycan array binding signal (z-score),[15],1.94
same,glycan array binding signal (z-score),[16],-0.171
same,glycan array binding signal (z-score),[17],-0.366
same,glycan array binding signal (z-score),[18],-0.26
same,glycan array binding signal (z-score),[19],-0.272
same,glycan array binding signal (z-score),[20],-0.033
same,glycan array binding signal (z-score),[21],-0.426
same,glycan array binding signal (z-score),[22],-0.338
same,glycan array binding signal (z-score),[23],-0.508
same,glycan array binding signal (z-score),[24],-0.321
same,glycan array binding signal (z-score),[25],0.11
same,glycan array binding signal (z-score),[26],-0.085
same,glycan array binding signal (z-score),[27],-0.393
same,glycan array binding signal (z-score),[28],-0.333
same,glycan array binding signal (z-score),[29],0.047
